Results taken from PubChem BioAssay AID588579 (National Center for Advancing Translational Sciences (NCATS), 2011).
The campaign covered roughly 400,000 compounds. About 2,200 (0.55%) were called active. Roughly 1% stayed inconclusive and do not appear here. Calls follow the shape of the dose curve; as a rule, active = well fitted inhibition curve with a large enough effect; inconclusive = small, poorly fitted or top-dose-only effect, or another doubt; inactive = no such curve, though single readings can be large or run the other way. The list shows a part of the results, in another mix than the full data. More than one record can exist for a structure, and the calls need not agree.

biological target: DNA polymerase kappa (Homo sapiens) (UniProt Q9UBT6); assay: qHTS for Inhibitors of Polymerase Kappa; settings: purified Pol kappa, fluorescent DNA synthesis assay, 10 min; activity, negative = inhibition: at the top concentration
How it was run: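 Here, compound and 10 nM enzyme are combined for 15 min at room temperature; adding 50 nM substrate (final) starts DNA synthesis, tracked by fluorescence at 0 and 10 min against buffer-only wells.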
% is scaled to controls: 0 for no effect and ±100 for the full control effect; potency is read from the fitted curve at half-maximal effect.

Chain of UniProt Q9UBT6 (Q9UBT6 whole entry, looked up): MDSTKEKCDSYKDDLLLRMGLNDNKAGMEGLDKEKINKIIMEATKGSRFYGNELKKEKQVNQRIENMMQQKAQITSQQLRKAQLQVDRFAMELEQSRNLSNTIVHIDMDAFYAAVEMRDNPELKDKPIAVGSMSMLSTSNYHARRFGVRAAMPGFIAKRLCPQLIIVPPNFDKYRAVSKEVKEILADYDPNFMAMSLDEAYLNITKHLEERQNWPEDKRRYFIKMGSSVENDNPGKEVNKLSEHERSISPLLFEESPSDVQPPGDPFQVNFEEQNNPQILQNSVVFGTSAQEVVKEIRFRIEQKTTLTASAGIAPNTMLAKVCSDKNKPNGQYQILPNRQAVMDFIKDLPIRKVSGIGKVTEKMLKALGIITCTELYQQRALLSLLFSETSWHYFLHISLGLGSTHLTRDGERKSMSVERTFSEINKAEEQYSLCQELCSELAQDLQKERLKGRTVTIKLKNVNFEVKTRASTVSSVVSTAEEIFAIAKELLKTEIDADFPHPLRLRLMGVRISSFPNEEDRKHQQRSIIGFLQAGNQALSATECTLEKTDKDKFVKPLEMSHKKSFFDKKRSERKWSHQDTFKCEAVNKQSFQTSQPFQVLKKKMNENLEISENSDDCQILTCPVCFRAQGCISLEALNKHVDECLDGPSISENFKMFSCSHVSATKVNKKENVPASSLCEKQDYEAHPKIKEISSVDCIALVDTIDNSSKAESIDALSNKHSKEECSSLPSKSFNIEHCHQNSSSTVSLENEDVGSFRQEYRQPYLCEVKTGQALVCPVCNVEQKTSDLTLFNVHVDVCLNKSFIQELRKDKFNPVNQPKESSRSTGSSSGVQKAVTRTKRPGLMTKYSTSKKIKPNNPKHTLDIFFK

`O=[N+]([O-])c1cc([As](=O)(O)O)ccc1O` was tested. Which Potency did it give?
Its Potency is “inactive”.

`CCN1C[C@@]2(OC(=O)c3ccccc3NC(C)=O)CCC(OC)[C@@]34C5CC6C(OC)C[C@@](O)(C(CC23)[C@@H]14)C5(O)C6OC` (stereo partly drawn) was tested. Which “activity, negative = inhibition” value did it give?
The value was inactive: -5.67%.

Which Potency does the source give for `COc1cccc(N2C(=O)NC(=O)/C(=C/c3ccc([N+](=O)[O-])s3)C2=O)c1` here?
The Potency was active: 31.6 µM.

With `c1nc[n]([Sn]([CH]2CCCCC2)([CH]2CCCCC2)[CH]2CCCCC2)n1` as the molecule, how does the “activity, negative = inhibition” value read?
Its value is inactive: 13.4%.

For `C[C@H](CCC(=O)O)[C@H]1CC[C@H]2[C@@H]3[C@H](O)C[C@@H]4C[C@H](O)CC[C@]4(C)[C@H]3CC[C@]12C`, which “activity, negative = inhibition” value is on record?
Its value is inactive: 7.87% [at 107 µM].

With `O=C(CO)[C@@H](O)C(O)[C@@H](O)CO` (stereo partly drawn) as the molecule, how does the “activity, negative = inhibition” value read?
The value was inactive: 14.3%.

For `CN1C(=O)NC(=O)/C(=C/c2ccc([N+](=O)[O-])o2)C1=O`, which Potency is on record?
Its Potency is active: 22.4 µM.

`C[C@]12CC[C@@H]3c4ccc(OC(=O)N(CCCl)CCCl)cc4CC[C@H]3[C@@H]1CC[C@@H]2O` was tested. Which Potency did it give?
The Potency was active: 8.91 µM.

With `CCCN1CCc2cccc3c2[C@H]1Cc1ccc(O)c(O)c1-3` as the molecule, how does the “activity, negative = inhibition” value read?
The value was inactive: 1.61% [at 107 µM].

With `O=C1NC(=S)N(c2ccccc2)C(=O)/C1=C/c1ccco1` as the molecule, how does the Potency read?
The Potency was active: 2.51 µM.

`COc1ccc2c3c([nH]c2c1)C(C)=NCC3` was tested. Which Potency did it give?
The Potency was “inactive”.

For `CC(C)(C)NCC(O)c1cc(Cl)c(N)c(Cl)c1` (stereo not drawn), which Potency is on record?
Its Potency is “inactive”.

Which Potency does the source give for `Fc1ccc(C(OCCN2CCN(CCCc3ccccc3)CC2)c2ccc(F)cc2)cc1` here?
The Potency was “inactive”.

How did the Potency turn out when `CCCC[C@H]1C(=O)O[C@H](C)[C@H](NC(=O)c2cccc(NC=O)c2OC)C(=O)O[C@@H](C)[C@@H]1OC(=O)CC(C)C` was run?
Its Potency is “inactive”.

How did the “activity, negative = inhibition” value turn out when `CC(C)C[C@H]1C(=O)N2CCCC2[C@]2(O)O[C@](NC(=O)[C@@H]3C=C4c5cccc6[nH]c(Br)c(c56)C[C@H]4N(C)C3)(C(C)C)C(=O)N12` (stereo partly drawn) was run?
The value was inactive: -6.77% [at 19.4 µM].

`CC(COc1ccccc1)N(CCCl)Cc1ccccc1` (stereo not drawn) was tested. Which Potency did it give?
The Potency was “inactive”.

With `N#CC1=C(N)Oc2c(c(=O)oc3ccccc23)C1c1ccc([N+](=O)[O-])o1` (stereo not drawn) as the molecule, how does the Potency read?
The Potency was active: 50.1 µM.

For `CNCCc1c[nH]c2ccc(O)cc12`, which Potency is on record?
The Potency was “inactive”.

With `CN1/C(=C\C=C2C(=O)NC(=S)NC2=O)C(C)(C)c2ccccc21` as the molecule, how does the “activity, negative = inhibition” value read?
The value was inactive: 52% [at 107 µM].

How did the “activity, negative = inhibition” value turn out when `CC1(C)C(C=C(Cl)Cl)C1C(=O)OC(C#N)c1cccc(Oc2ccccc2)c1` (stereo not drawn) was run?
Its value is inactive: 1.43% [at 19.4 µM].

Which Potency does the source give for `COc1ccc(OC)c(N2C(=O)/C(=C/c3ccco3)C(=O)NC2=S)c1` here?
Its Potency is active: 3.55 µM.

How did the Potency turn out when `C[C@]12N[C@H](Cc3ccccc31)c1ccccc12` was run?
Its Potency is “inactive”.

How did the Potency turn out when `C/C=C1/C[C@@H](C)[C@](O)(CO)C(=O)OCC2=CCN3CC[C@@H](OC1=O)C23` (stereo partly drawn) was run?
Its Potency is “inactive”.

`CN(N=O)c1cc(O)ccc1O` was tested. Which “activity, negative = inhibition” value did it give?
The value was inactive: -2.39% [at 107 µM].

With `Oc1ccc2c3c1OC1c4oc5ccccc5c4C[C@@]4(O)[C@@H](C2)N(CC2CC2)CC[C@]314` (stereo partly drawn) as the molecule, how does the “activity, negative = inhibition” value read?
The value was inactive: -6.9% [at 107 µM].

Which Potency does the source give for `O=C(O)CC1OCC=C2CN3CCC45C6=CC(=O)C(=O)C([N+](=O)[O-])=C6NC4C1C2CC35` (stereo not drawn) here?
Its Potency is active: 39.8 µM.

With `COP(=S)(OC)Oc1ccc([N+](=O)[O-])c(C)c1` as the molecule, how does the “activity, negative = inhibition” value read?
The value was inactive: 13.8%.

For `CC(C)C1C(=O)N2CCC[C@H]2[C@]2(O)O[C@](NC(=O)[C@@H]3C=C4c5cccc6[nH]cc(c56)C[C@H]4N(C)C3)(C(C)C)C(=O)N12` (stereo partly drawn), which “activity, negative = inhibition” value is on record?
Its value is inactive: -8.56% [at 19.4 µM].

With `CCCC[C@@H](C)[C@@H](OC(=O)C[C@@H](CC(=O)O)C(=O)O)[C@H](C[C@@H](C)C[C@H](O)CCCC[C@@H](O)C[C@H](O)[C@H](C)N)OC(=O)C[C@H](CC(=O)O)C(=O)O` as the molecule, how does the “activity, negative = inhibition” value read?
The value was inactive: 5.05% [at 19.4 µM].

Which “activity, negative = inhibition” value does the source give for `C[C@]12C=CC(=O)C=C1CC[C@@H]1C2=CC[C@]2(C)[C@@H](C(=O)CN3CCN(c4cc(N5CCCC5)nc(N5CCCC5)n4)CC3)CC[C@@H]12` here?
Its value is inactive: -16.6% [at 107 µM].

`CN1[C@@H]2CC[C@H]1CC(OC1c3ccccc3CCc3ccccc31)C2` (stereo partly drawn) was tested. Which Potency did it give?
The Potency was “inactive”.

With `Cc1cc(C=C2C(=O)NC(=S)NC2=O)c(C)n1-c1ccc2c(c1)OCO2` as the molecule, how does the Potency read?
The Potency was active: 79.4 µM.

With `OCC(Br)(Br)Br` as the molecule, how does the “activity, negative = inhibition” value read?
The value was inactive: 21.1%.

How did the Potency turn out when `C=C1C(=O)O[C@@H]2C[C@@H](C)[C@@H]3C=CC(=O)[C@@]3(C)[C@@H](OC(=O)CC(=O)O[C@H]3[C@@H]4C(=C)C(=O)O[C@@H]4C[C@@H](C)[C@@H]4C=CC(=O)[C@]43C)[C@H]12` was run?
The Potency was active: 35.5 µM.

With `CC(C)=CCCC1(C)C=Cc2c(O)c3c(c(CC=C(C)C)c2O1)OC12C(=CC4CC1C(C)(C)OC2(C/C=C(/C)C(=O)O)C4O)C3=O` (stereo not drawn) as the molecule, how does the Potency read?
Its Potency is active: 25.1 µM.

`O=C1NC(=S)NC(=O)C1=Cc1cccn1-c1ccc(O)cc1` was tested. Which Potency did it give?
The Potency was active: 17.8 µM.

Which “activity, negative = inhibition” value does the source give for `C[C@H](N)C(=O)NCC(=O)N[C@H]1CSSC[C@@H](C(=O)O)NC(=O)[C@H](CO)NC(=O)[C@H]([C@@H](C)O)NC(=O)[C@H](Cc2ccccc2)NC(=O)[C@H]([C@@H](C)O)NC(=O)[C@H](CCCCN)NC(=O)[C@H](Cc2c[nH]c3ccccc23)NC(=O)[C@H](Cc2ccccc2)NC(=O)[C@H](Cc2ccccc2)NC(=O)[C@H](CC(N)=O)NC(=O)[C@H](CCCCN)NC1=O` here?
The value was inactive: 5.21%.

How did the Potency turn out when `C[C@@]12N[C@@H](Cc3ccccc31)c1ccccc12` was run?
Its Potency is “inactive”.

For `COc1ccc(OC)c(N2C(=O)NC(=O)/C(=C\c3ccc([N+](=O)[O-])s3)C2=O)c1`, which Potency is on record?
The Potency was active: 35.5 µM.

How did the “activity, negative = inhibition” value turn out when `Oc1c(Cl)c(Cl)c(Cl)c(Cl)c1Cl` was run?
The value was inactive: 0% [at 107 µM].

Which “activity, negative = inhibition” value does the source give for `CN(C)C1C(=O)C(C(N)=O)=C(O)C2(O)C(=O)C3=C(O)c4c(O)cccc4C(C)(O)C3C(O)C12` (stereo not drawn) here?
Its value is inactive: -3.64% [at 107 µM].

With `CC[C@@]1(O)C(=O)OCc2c1cc1n(c2=O)Cc2cc3cc(O)ccc3nc2-1` as the molecule, how does the “activity, negative = inhibition” value read?
The value was inactive: -11.4%.

How did the “activity, negative = inhibition” value turn out when `CCCCOC(=O)N(C)SN(C)C(=O)Oc1cccc2c1OC(C)(C)C2` was run?
Its value is inactive: 13.6%.

For `CN=C(NC#N)NCCSCc1nc[nH]c1C`, which Potency is on record?
The Potency was active: 28.2 µM.

With `Oc1ccc2c3c1O[C@H]1[C@@H](O)CC[C@]4(O)[C@H](C2)N(CC2CCC2)CC[C@@]314` as the molecule, how does the activity, negative = inhibition read?
Its activity, negative = inhibition is inactive: -4.46% [at 12 µM].

`CNCC(=O)c1ccccc1` was tested. Which “activity, negative = inhibition” value did it give?
Its value is inactive: 23.7% [at 107 µM].

For `Cc1ccc(N2C(=O)NC(=O)/C(=C/c3ccoc3)C2=O)cc1`, which Potency is on record?
Its Potency is active: 22.4 µM.

Which “activity, negative = inhibition” value does the source give for `C=C(C)[C@@H]1CC[C@]2(C(=O)O)CC[C@]3(C)[C@H](CC[C@@H]4[C@@]5(C)CC[C@H](O)C(C)(C)[C@@H]5CC[C@]43C)[C@@H]12` here?
The value was inactive: 10.6% [at 107 µM].

Which “activity, negative = inhibition” value does the source give for `Nc1ccc(N)cc1` here?
Its value is inactive: -5.82%.

For `O=C(O)c1cccc2c1NC(C(=O)O)C1CC(Sc3ccccc3[N+](=O)[O-])C(Cl)C21` (stereo not drawn), which Potency is on record?
The Potency was active: 8.91 µM.

With `Cc1cccc(NC(=O)C2CCCN(S(=O)(=O)c3ccc4c(c3)oc(=O)n4C)C2)c1` (stereo not drawn) as the molecule, how does the “activity, negative = inhibition” value read?
The value was inactive: -12.4%.

`O=C(Nc1cc(C(F)(F)F)cc(C(F)(F)F)c1)c1cc(Cl)ccc1O` was tested. Which “activity, negative = inhibition” value did it give?
The value was inactive: -7.03%.

With `CN(C)C1C(=O)C(C(N)=O)=C(O)[C@@]2(O)C(=O)C3=C(O)c4c(O)cccc4[C@](C)(O)C3C(O)C12` (stereo partly drawn) as the molecule, how does the Potency read?
Its Potency is active: 2.82 µM.

How did the “activity, negative = inhibition” value turn out when `C=C1CCC(O)C/C1=C/C=C1\CCC[C@]2(C)[C@@H]([C@H](C)CCCC(C)C)CC[C@@H]12` (stereo partly drawn) was run?
The value was inactive: 5.39%.

`Cc1[nH]ccc2c1[nH]c1cc(=O)ccc12` was tested. Which Potency did it give?
Its Potency is “inactive”.

How did the “activity, negative = inhibition” value turn out when `CSCC[C@H](NC(=O)[C@@H](NC(=O)CNC(=O)[C@H](CC(=O)O)NC(=O)[C@H](CCSC)NC(=O)[C@@H](N)Cc1ccc(O)cc1)[C@@H](C)O)C(=O)N[C@@H](CO)C(=O)N[C@@H](CCC(N)=O)C(=O)N[C@H](C(=O)O)C(C)C` was run?
The value was inactive: 14%.

With `CCCOC(=O)c1ccccc1` as the molecule, how does the Potency read?
The Potency was “inactive”.

With `CSC(=S)NCc1c[nH]c2ccccc12` as the molecule, how does the “activity, negative = inhibition” value read?
Its value is inactive: 8.52%.

For `C=C1CC[C@H](O)C/C1=C/C=C1\CCC[C@]2(C)[C@@H]([C@H](C)CCCC(C)C)CC[C@@H]12`, which “activity, negative = inhibition” value is on record?
Its value is inactive: -5.32% [at 19.4 µM].

How did the “activity, negative = inhibition” value turn out when `CC12CCC(=O)C=C1CCC1C2CCC2(C)C(O)CCC12` (stereo not drawn) was run?
Its value is inactive: -6.43% [at 107 µM].

Which “activity, negative = inhibition” value does the source give for `CCCCC/C=C\C/C=C\C/C=C\C/C=C\CCCC(=O)NCCO` here?
Its value is inactive: 5.3% [at 19.4 µM].

With `Oc1ccc2c3c1O[C@H]1c4oc5ccccc5c4C[C@@]4(O)[C@@H](C2)N(CC2CC2)CC[C@]314` as the molecule, how does the “activity, negative = inhibition” value read?
Its value is inactive: -18% [at 107 µM].

With `C=CCN1CC[C@]23c4c5ccc(O)c4OC2C(O)CC[C@@]3(O)[C@H]1C5` (stereo partly drawn) as the molecule, how does the “activity, negative = inhibition” value read?
Its value is inactive: 14.8% [at 107 µM].
